Measurements published in PubChem BioAssay AID1460 (National Center for Advancing Translational Sciences (NCATS), 2008).
In all, about 270,000 compounds went through this assay and about 5,800 (2.1%) were called active. Inconclusive means that the source gave no clear call. Such entries were picked first, then a sample of the others. Calls follow the shape of the dose curve; as a rule, active = well fitted inhibition curve with a large enough effect; inconclusive = small, poorly fitted or top-dose-only effect; inactive = flat fitted curve, though single readings scatter. Potencies of inconclusive entries are doubtful fits and often do not repeat.
% is scaled to controls: 0 for no effect and ±100 for the full control effect; potency is read from the fitted curve at half-maximal effect; tags tell the direction and shape of the fitted curve.
Also: nearly all actives have a fitted effect of over 55% in size.

These compounds were tested against Microtubule-associated protein tau (Homo sapiens) (UniProt P10636) (assay: qHTS for Inhibitors of Tau Fibril Formation, Thioflavin T Binding). Settings: recombinant tau K18 P301L (four-repeat tau fragment), heparin-induced fibrillization, ThT fluorescence; series mostly up to 57.4 µM; activity, negative = inhibition: at the top concentration.
Sequence of UniProt P10636 (P10636 whole entry, looked up, the tested form may be a part): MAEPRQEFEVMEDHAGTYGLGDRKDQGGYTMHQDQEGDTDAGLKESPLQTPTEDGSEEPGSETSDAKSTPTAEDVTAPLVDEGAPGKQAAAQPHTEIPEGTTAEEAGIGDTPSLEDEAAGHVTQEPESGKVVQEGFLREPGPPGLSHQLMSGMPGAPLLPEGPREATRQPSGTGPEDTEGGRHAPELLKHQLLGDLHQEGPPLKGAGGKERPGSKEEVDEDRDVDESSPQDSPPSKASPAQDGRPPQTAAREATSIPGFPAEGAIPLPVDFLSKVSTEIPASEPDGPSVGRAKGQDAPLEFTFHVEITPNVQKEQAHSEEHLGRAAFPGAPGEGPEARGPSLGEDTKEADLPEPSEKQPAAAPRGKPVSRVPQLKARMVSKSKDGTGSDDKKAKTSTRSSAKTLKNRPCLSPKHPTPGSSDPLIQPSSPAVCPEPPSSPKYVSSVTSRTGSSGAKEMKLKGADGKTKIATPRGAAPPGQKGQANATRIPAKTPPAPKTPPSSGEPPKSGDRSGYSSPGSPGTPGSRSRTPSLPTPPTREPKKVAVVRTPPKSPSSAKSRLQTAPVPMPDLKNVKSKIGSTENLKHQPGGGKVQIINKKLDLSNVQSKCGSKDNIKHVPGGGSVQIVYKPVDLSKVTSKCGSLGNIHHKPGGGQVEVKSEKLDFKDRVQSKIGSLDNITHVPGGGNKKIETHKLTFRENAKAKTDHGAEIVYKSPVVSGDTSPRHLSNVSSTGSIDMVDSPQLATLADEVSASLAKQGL
Method in brief: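 Recombinant human tau K18 fragment […] carrying P301L, 15 uM unlabeled plus 0.24 uM Alexa 594-labeled, was fibrillized with 20 uM heparin in 100 mM sodium acetate pH 7 for 6 hr at 37 C; 30 uM ThT fluorescence read after 1 hr.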
For `CC(C)(C)c1ccc(NC(=S)NCc2cccnc2)cc1`, the “activity, negative = inhibition” value was inactive: -6.88%. With `O=C(CSCC(=O)OCn1nnc2ccccc2c1=O)Nc1ccc(Cl)cc1` the “activity, negative = inhibition” value was inactive: -14.7%. For `CC(=O)Oc1cccc(/C=C2\C=C(c3ccc(C)cc3)OC2=O)c1`, the Potency was inconclusive: 8.91 µM [inhibitor, full curve]. With `O=[N+]([O-])c1ccc(N2CCCCC2)cc1NCCOc1ccccc1` the Potency was inconclusive: 5.01 µM [inhibitor, partial curve]. In the case of `Brc1cccc(-c2nnn3c2nc(N2CCCCC2)c2ccccc23)c1`, the “activity, negative = inhibition” value is reported as inactive: -12.5%. `CCCN1CCC(=NNc2ccc(S(=O)(=O)N3CCOCC3)cc2[N+](=O)[O-])CC1` was tested, and the “activity, negative = inhibition” value was inactive: -0.0882%. In the case of `CCn1c2c(c(=O)n3ncc(C(=O)Nc4ccc(Cl)cc4C)c13)CN(Cc1ccc(OC)cc1)CC2`, the Potency is reported as inconclusive: 15.8 µM [inhibitor, single point]. `CSc1sccc1/C=N/NC(=O)c1ccncc1` was tested, and the Potency was inconclusive: 8.91 µM [inhibitor, partial curve]. `O=C1C2CCCCN2C(=O)N1CCN1CCN(c2ccc([N+](=O)[O-])cc2)CC1` (configuration not stated) was tested, and the Potency was inconclusive: 11.2 µM [inhibitor, partial curve]. With `O=C1CC(c2ccco2)Sc2nc3ccccc3n21` (configuration not stated) the Potency was inconclusive: 22.4 µM [inhibitor, partial curve]. `COc1cc(NC(=O)COc2ccccc2[N+](=O)[O-])ccc1NC(=O)c1cccs1` was tested, and the “activity, negative = inhibition” value was inactive: -4.26%. `C/C(=N\NC(=O)CSc1nnc(C)s1)c1ccc(Cl)cc1` was tested, and the Potency was inconclusive: 22.4 µM [inhibitor, partial curve]. In the case of `CCCCN(C)c1nnc(NC(=O)Nc2ccc(Br)c(C)c2)s1`, the “activity, negative = inhibition” value is reported as inactive: 11.5%. For `Nc1cccc(-c2ccc(CO)o2)c1`, the Potency was inconclusive: 10 µM [inhibitor, partial curve]. For `Cc1ccc(-c2nnn(CC(=O)N(c3ccccc3)C(C(=O)NC(C)(C)C)c3cccs3)n2)o1` (configuration not stated), the “activity, negative = inhibition” value was inactive: 0.529%. With `Cc1[nH]n(-c2ccccc2)c(=O)c1C=Nc1ccc(S(=O)(=O)Nc2nccs2)cc1` the Potency was inconclusive: 20 µM [inhibitor, partial curve]. With `CN(C)c1ccc(NC(=O)Cn2cc(S(=O)(=O)Cc3ccccc3Cl)c3ccccc32)cc1` the Potency was inconclusive: 12.6 µM [inhibitor, partial curve]. `O=C(NCc1ccco1)c1ccc(COc2cccc3ccccc23)cc1` was tested, and the “activity, negative = inhibition” value was inactive: -14.2%. In the case of `Cc1c(C(=O)O)cccc1-c1ccc(/C=N/Nc2ccc(Br)cc2)o1`, the Potency is reported as active: 11.2 µM. In the case of `CN(C)c1cccc(OC2C=CC(C#Cc3ccccc3)OC2CO)c1` (configuration not stated), the Potency is reported as inconclusive: 2.51 µM [inhibitor, partial curve]. With `OC1NC(=S)N(c2ccccc2)C1O` (configuration not stated) the “activity, negative = inhibition” value was inactive: -0.978%. In the case of `Fc1ccc(-c2cc3nc(-c4ccccc4)cc(N4CCN(CCN5CCOCC5)CC4)n3n2)cc1`, the Potency is reported as inconclusive: 14.1 µM [activator, partial curve]. `CC(Sc1nc2cc([N+](=O)[O-])ccc2n1-c1ccc(F)cc1)C(=O)NCc1ccc2c(c1)OCO2` (configuration not stated) was tested, and the “activity, negative = inhibition” value was inactive: -0.457%. For `Cc1ccc2c(c1)N/C(=C(\C=C(/Cl)[N+](=O)[O-])[N+](=O)[O-])N2`, the Potency was active: 17.8 µM. In the case of `CC(=O)N1C(=O)C(=C2C=C(C)OC(C)=C2)c2ccccc21`, the Potency is reported as inconclusive: 1.41 µM [inhibitor, full curve]. In the case of `CCC(C)NC(=O)Cn1c(=O)c2cccn2c2ccc(F)cc21` (configuration not stated), the Potency is reported as inconclusive: 0.631 µM [inhibitor, full curve]. `CCCOc1cccc(C(=O)N2CCCCC2CCN2CCCCC2)c1` (configuration not stated) was tested, and the “activity, negative = inhibition” value was inactive: -0.714%. In the case of `COc1ccccc1OCc1ccc(C(=O)OCC2CCCO2)o1` (configuration not stated), the Potency is reported as inconclusive: 0.112 µM [inhibitor, partial curve, poor fit]. For `Cc1ccc(NC(=O)CCc2nc3cccnc3n2-c2ccccc2)cc1Cl`, the “activity, negative = inhibition” value was inactive: -5.4%. In the case of `COc1ccc(N=Cc2oc3ccc4ccccc4c3c2O)cc1`, the Potency is reported as inconclusive: 1 µM [inhibitor, full curve]. In the case of `Cc1ccccc1Nc1c(-c2c[nH]c3ccccc23)nc2cccc(C)n12`, the “activity, negative = inhibition” value is reported as inactive: -2.59%. `COc1ccc(C2C=C(c3ccc(Cl)cc3)Nc3nc(NC(=O)CCC(=O)O)nn32)cc1` (configuration not stated) was tested, and the Potency was inconclusive: 0.794 µM [inhibitor, full curve]. In the case of `CO[C@H]1COC(=O)[C@H](C)NC(=O)C/C=C\[C@@H](C)[C@@H](NS(=O)(=O)c2ccc(C)cc2)COC(=O)C/C=C\[C@@H]1C`, the activity, negative = inhibition is reported as inactive: -13.6% [at 11.5 µM]. `COc1ccccc1Nc1nc(N)nc(-c2cc3ccccc3o2)n1` was tested, and the Potency was inconclusive: 10 µM [inhibitor, full curve]. In the case of `O=C(COC(=O)c1cc(S(=O)(=O)N2CCc3ccccc3C2)ccc1Cl)NCc1ccco1`, the Potency is reported as active: 31.6 µM. `Cc1ccccc1Cn1c(C)c(CNCCCc2ccccc2)c(C(=O)O)c1C` was tested, and the “activity, negative = inhibition” value was inactive: -0.665%. In the case of `NS(=O)(=O)c1cccc(NC(=O)c2cc3ccccc3o2)c1`, the “activity, negative = inhibition” value is reported as inactive: -0.618%. `Cc1nc2cc3nc(C)sc3cc2s1` was tested, and the Potency was inconclusive: 7.08 µM [inhibitor, full curve, poor fit]. In the case of `CCC1(C)Cc2c(C#N)c(N)n(-c3ccccc3)c(=S)c2CO1` (configuration not stated), the “activity, negative = inhibition” value is reported as inactive: 9.33%. For `CNc1nc(-c2ccc3c(c2)CCN3C(=O)c2ccccc2C)cs1`, the Potency was inconclusive: 15.8 µM [inhibitor, partial curve]. With `Cc1cccc(Cn2c(CN3CCCC(C)C3)nc3c2c(=O)n(C)c(=O)n3C)c1` (configuration not stated) the “activity, negative = inhibition” value was inactive: 4.01%. With `CCOC(=O)c1c(-c2ccc(C)cc2)csc1NC(=O)C1CC=CCC1C(=O)O` (configuration not stated) the Potency was inconclusive: 15.8 µM [inhibitor, partial curve]. `CCOc1ccc(CCNC(=O)c2nn(C)c3c2CSc2ccc(C)cc2-3)cc1OCC` was tested, and the Potency was inconclusive: 3.16 µM [inhibitor, full curve]. For `Cc1nn2cc(-c3ccc(N)cc3)nc2s1`, the Potency was inconclusive: 20 µM [inhibitor, partial curve]. In the case of `COc1cc(/C=C(\C#N)c2nc3c(s2)CC(C)CC3)ccc1O` (configuration not stated), the Potency is reported as active: 12.6 µM. `C/C(Cn1cnc([N+](=O)[O-])n1)=N\NC(=O)c1ccc(Br)cc1` was tested, and the Potency was inconclusive: 12.6 µM [inhibitor, partial curve, poor fit]. With `Nc1c(C(=O)O)sc2nc(-c3ccccc3)cc(-c3ccccc3)c12` the Potency was inconclusive: 8.91 µM [inhibitor, full curve].
